# Assay results reported in PubChem BioAssay AID485294 (National Center for Advancing Translational Sciences (NCATS), 2010).
# Out of some 370,000 compounds screened, about 150 (0.041%) were called active. This list was built around the results that the source calls inconclusive (neither active nor inactive); the mix of calls is not that of the screen. The call rests on the fitted dose curve; in most records, active means well fitted inhibition curve with a large enough effect; inconclusive means small, poorly fitted or top-dose-only effect; inactive means flat fitted curve, though single readings scatter. No potency is given beside an inconclusive call; the fits are too rough.
# Target: Beta-lactamase (Escherichia coli (strain K12)) (UniProt P00811)
# Test: qHTS Inhibitors of AmpC Beta-Lactamase (assay with detergent); further: nearly all actives have a fitted effect of over 25% in size
# Details: AmpC hydrolysis of nitrocefin, absorbance 480 nm, 0.01% Triton; series mostly up to 114 µM
# Summary of the method: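 AmpC (5.3 nM in the dispensed reagent) in 20 mM phosphate pH 7.0 with 0.01% (detergent screen) or 0.0001% Triton X-100 was preincubated with compounds for 15 min at room temperature. Nitrocefin was then added from an 800 uM solution, and hydrolysis was followed at 480 nm.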
# Potency means the concentration at half of the fitted maximal effect; tags describe the fitted curve by direction and shape.
# Sequence of UniProt P00811 (P00811 whole entry, looked up): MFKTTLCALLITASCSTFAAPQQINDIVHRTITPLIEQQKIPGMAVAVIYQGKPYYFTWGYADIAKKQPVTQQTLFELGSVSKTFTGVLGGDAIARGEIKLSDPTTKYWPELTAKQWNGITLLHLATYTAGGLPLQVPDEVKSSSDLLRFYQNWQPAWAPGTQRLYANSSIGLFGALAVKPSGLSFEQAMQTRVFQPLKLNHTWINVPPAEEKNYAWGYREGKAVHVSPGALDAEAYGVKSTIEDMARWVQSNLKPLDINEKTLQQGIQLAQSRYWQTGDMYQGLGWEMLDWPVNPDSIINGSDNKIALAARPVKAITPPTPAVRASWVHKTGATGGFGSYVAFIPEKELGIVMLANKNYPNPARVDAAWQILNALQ
row,SMILES,Potency
1,Cc1cc(C)c(NC(=O)C(C)Sc2nnc(-c3ccco3)n2-c2ccccc2)c(C)c1 (stereo not given),"inconclusive [inhibitor, full curve, poor fit]"
2,O=C(Cn1c(=O)cnc2ccccc21)N1CCN(S(=O)(=O)c2ccc(F)cc2)CC1,"inconclusive [inhibitor, full curve, poor fit]"
3,O=C(NCc1ccccn1)c1ccc(CNS(=O)(=O)c2cccc(C(F)(F)F)c2)cc1,inactive
4,COc1ccc(C2C(C(C)=O)=C(O)C(=O)N2CCCn2ccnc2)cc1OC (stereo not given),"inconclusive [inhibitor, full curve, poor fit]"
5,CC1=C(C(=O)OCc2ccccc2)C(c2ccccc2Cl)NC(=O)N1C (stereo not given),inactive
6,Cc1cc(C(F)(F)F)n2[nH]c(=O)c(N=Nc3ccccc3)c2n1,"inconclusive [inhibitor, single point]"
7,CCCC[C@]12Cc3cc(C#N)ccc3C(O1)c1c(cc(C)n(-c3ccccc3)c1=O)O2,"inconclusive [inhibitor, partial curve]"
8,Cn1cnnc1SCC(=O)Nc1ccc2nc(SCc3ccccc3Cl)sc2c1,"inconclusive [inhibitor, full curve, poor fit]"
9,Cc1nnc2ccc(N3CCN(c4ccccn4)CC3)nn12,"inconclusive [inhibitor, full curve, poor fit]"
10,CCOC(=O)N1CCC(n2c(SCC(=O)NCCC3=CCCCC3)nc3ccccc3c2=O)CC1,inactive
11,C#CCN1C(=O)S/C(=C\c2ccc(-c3ccc(C(=O)O)cc3C)o2)C1=O,inactive
12,COc1ccc(/C=C/C(=O)Nc2ccc3c(c2)CCC3)cc1OC,"inconclusive [inhibitor, full curve, poor fit]"
13,CCn1nc(C(=O)OCC(=O)c2ccc3c(c2)OCCO3)c2ccccc2c1=O,"inconclusive [inhibitor, single point]"
14,CC(C)c1ccc(NC(=O)COC(=O)C2=COCCO2)cc1,inactive
15,O=C(O)CCCC(=O)Nc1ccccc1Br,"inconclusive [inhibitor, partial curve, poor fit]"
16,COc1cc(S(=O)(=O)N2CCOCC2)ccc1NC(=O)COC(=O)c1ccccn1,"inconclusive [inhibitor, full curve, poor fit]"
17,O=C(Nc1ccc(S(=O)(=O)Nc2ncccn2)cc1)c1ccccc1NS(=O)(=O)c1ccc(F)cc1,inactive
18,O=C(/C=C/c1ccc2c(c1)OCO2)Nc1nc2ccc(F)cc2s1,"inconclusive [inhibitor, full curve]"
19,COc1ccc(C2=NS(=O)(=O)N(C)C(C(=O)N3C(C)CCCC3C)=C2)cc1 (stereo not given),"inconclusive [inhibitor, full curve]"
20,COc1ccc(NC(=O)CCc2nnc3ccc(NCc4ccco4)nn23)cc1,"inconclusive [inhibitor, full curve, poor fit]"
21,Cc1ccc(C)c(OCc2cc(C(=O)NC3CCOC(C)(C)C3)no2)c1 (stereo not given),"inconclusive [inhibitor, full curve, poor fit]"
22,COc1cccc(N2CCN(C(=O)CN(c3cc(C)cc(C)c3)S(=O)(=O)c3c(C)noc3C)CC2)c1,inactive
23,O=C(NCCCO)C(=O)NCC(c1ccc2c(c1)OCO2)N1CCOCC1 (stereo not given),inactive
24,COC(=O)c1ccc(NC(=O)COc2cccc3c2OC(C)(C)C3)cc1,"inconclusive [inhibitor, partial curve, poor fit]"

row,SMILES,Potency
1,O=C(CSc1nnc(-c2ccccc2)c(-c2ccccc2)n1)NC1CCCC1,"inconclusive [inhibitor, single point]"
2,CCC(=O)Nc1cnc(NC(=O)c2cccc(F)c2)cc1C,"inconclusive [inhibitor, single point]"
3,Cc1nn(Cc2ccccc2)c(C)c1C(=O)OCC(=O)c1cc(C)n(CC(F)(F)F)c1C,"inconclusive [inhibitor, full curve, poor fit]"
4,O=C(CN1C(=O)CCC1=O)Nc1ccc(Br)cc1,"inconclusive [inhibitor, full curve]"
5,CCOC(=O)c1cnn(CCOC(=O)c2ccc(OC)cc2)c1NC(=O)c1ccc(OC)cc1,"inconclusive [inhibitor, full curve]"
6,Cc1cc2cc(C(c3nnnn3Cc3ccco3)N3CCCCC3)c(=O)[nH]c2cc1C (stereo not given),inactive
7,Cn1c(=O)cc(OCC(=O)NCCCN2CCN(Cc3ccccc3)CC2)c2ccccc21,"inconclusive [inhibitor, full curve, poor fit]"
8,COC(=O)/C=C1\SC(=NC(=O)c2cccc([N+](=O)[O-])c2)NC1=O,inactive
9,Cc1cc(-c2ccccc2)nc(N/N=C/c2ccccc2)n1,inactive
10,CCn1c(COc2ccccc2OC)nc2ccccc21,"inconclusive [inhibitor, partial curve, poor fit]"
11,CCOC(=O)CSc1ncnc2c1cnn2-c1ccccc1,"inconclusive [inhibitor, full curve, poor fit]"
12,CCn1cc(SCC(=O)N2CCc3ccccc32)c2ccccc21,"inconclusive [inhibitor, full curve]"
13,Cc1ccc(-c2nn(C(C)(C)C)c3ncnc(N)c23)cc1,"inconclusive [inhibitor, full curve, poor fit]"
14,O=C(c1ccccc1)N1CCN(C(=O)c2ccccc2)CC1,"inconclusive [inhibitor, single point]"
15,Cc1oc2cc(O)ccc2c(=O)c1-c1ccccc1,"inconclusive [inhibitor, full curve, poor fit]"
16,COc1ccc(C(=O)N/N=C/c2cc(Br)ccc2O)cc1OC,inactive
17,CC(=O)N(C(C)=O)c1nc(-c2ccccc2)cn1/N=C/c1ccccc1,inactive
18,O=C1C(=O)N(Cc2cccnc2)C(c2ccccn2)/C1=C(/O)c1ccc(Br)cc1 (stereo not given),"inconclusive [inhibitor, partial curve, poor fit]"
19,Cc1ccc(-c2nnn(CC(=O)NCCc3ccc4c(c3)OCO4)n2)cc1,"inconclusive [inhibitor, full curve, poor fit]"
20,Cc1ccccc1C(=O)NCc1nnc(SCC(=O)N2c3ccccc3Sc3ccccc32)n1C,"inconclusive [inhibitor, full curve, poor fit]"
21,Cc1ccc(NC(=O)Nc2nc(-c3ccc(C)s3)cs2)cc1,"inconclusive [inhibitor, partial curve, poor fit]"
22,Cn1c(=O)c2c(nc(SCCOc3ccc4ccc(=O)oc4c3)n2C)n(C)c1=O,"inconclusive [inhibitor, full curve, poor fit]"
23,CN(c1ccccc1)S(=O)(=O)c1cccc2ccccc12,"inconclusive [inhibitor, full curve, poor fit]"
24,Cc1cccc(C)c1Nc1nc2ccccc2o1,"inconclusive [inhibitor, full curve, poor fit]"

row,SMILES,Potency
1,COc1ccc(NC(=O)c2ccc(COc3ccccc3Br)o2)cc1OC,"inconclusive [inhibitor, single point]"
2,O=C(O)C1CSCN1S(=O)(=O)c1cccc2nsnc12 (stereo not given),inactive
3,CCOC(=O)c1c(C)c(C(=O)NCc2ccc(OC)cc2)c(C)n1CC,inactive
4,COc1ccc(C(=O)N2CCCC(CNC(=O)c3ccccc3Cl)C2)o1 (stereo not given),inactive
5,O=C(N=Nc1c(O)[nH]c2ccc(Br)cc12)c1cc(-c2cccs2)nc2ccccc12,inactive
6,CC(C)c1ccc(NC(=S)NNC(=O)c2cccnc2)cc1,inactive
7,CC1CC(C)CN(C(=O)C2CCN(S(=O)(=O)c3c(Cl)cccc3Cl)CC2)C1 (stereo not given),inactive
8,Cc1cc(Cl)ccc1Oc1ccccc1C(=O)CC#N,inactive
9,COc1cccc(CNC(=O)CCn2nc(C)c3c(C)n(-c4ccccc4)nc3c2=O)c1,inactive
10,COc1ccc(S(=O)(=O)Nc2nc3n(n2)C(c2ccc(Cl)cc2)CC(=O)N3)cc1 (stereo not given),"inconclusive [inhibitor, partial curve]"
11,O=C(CN1C(=O)C(=O)N(C2CCCC2)C1=O)Nc1ccc(F)cc1F,"inconclusive [inhibitor, full curve, poor fit]"
12,Cc1cccc(N/C(=N/S(=O)(=O)c2ccccc2)c2ccccc2)n1,inactive
13,CC(NC(=O)c1cnc2ccccc2n1)c1ccccc1 (stereo not given),inactive
14,Cc1ccc(N(C(C)C(=O)O)S(=O)(=O)c2cccnc2)cc1 (stereo not given),"inconclusive [inhibitor, full curve, poor fit]"
15,O=S(=O)(c1cccc(S(=O)(=O)N2CCN(c3ncccn3)CC2)c1)N1CCOCC1,inactive
16,C/C(CCC(C)C)=N\NC(=S)NCc1ccccc1,inactive
17,Cc1ccc(NC(=O)C(=O)NCCc2sc(-c3ccc(Cl)cc3)nc2C)cc1C,inactive
18,CCC1CCCCN1Cc1ccc(OC)c(OC)c1 (stereo not given),"inconclusive [inhibitor, full curve, poor fit]"
19,CCOc1ccc(NC(=S)NC(=O)c2ccco2)cc1,inactive
20,O=C(Nc1ccc(S(=O)(=O)N2CCCCC2c2cccnc2)cc1)c1ccccc1F (stereo not given),"inconclusive [inhibitor, single point]"
21,Cc1ccn2c(=O)nc(SCC(=O)NC3CCCCC3)nc2c1,"inconclusive [inhibitor, single point]"
22,COc1ccc2c(c1OC)C(=O)N1C2SC(C)(C)[C@H]1C(=O)NC1CCCC1 (stereo not given in full),"inconclusive [inhibitor, full curve, poor fit]"
